Results published in PubChem BioAssay AID624296 (National Center for Advancing Translational Sciences (NCATS), 2012).
The whole screen tested about 350,000 compounds, of which about 9,900 (2.8%) were called active. This list was built around the results that the source calls inconclusive (neither active nor inactive); the mix of calls is not that of the screen. Calls come from the whole dose curve; as a rule, active = well fitted activation curve with a large enough effect; inconclusive = small, poorly fitted or top-dose-only effect; inactive = no such curve, though single readings can be large or run the other way. Potencies of inconclusive entries are left out as doubtful fits.

Experiment: A quantitative high throughput screen for small molecules that induce DNA re-replication in MCF 10a normal breast cells. For activity, positive = re-replication: % of control where 0% means no effect. Note: nearly all actives have a fitted effect of over 50% in size.
Settings: MCF 10A DNA re-replication, Hoechst nuclear intensity, 48 h; activity, positive = re-replication: at 46.1 µM (top of the series)
Potency is the fitted concentration of half-maximal effect; tags give direction and shape of the fitted curve.

Row | SMILES | Potency | activity, positive = re-replication
1 | COc1ccc(C(=O)Nc2ccc(S(=O)(=O)N3CCOCC3)cc2)cc1[N+](=O)[O-] | active: 4.61 µM | 
2 | CC(C)N1CCC(NC(=O)Nc2ccc3c(c2)OCO3)CC1 | inconclusive [activator, partial curve, poor fit] | 
3 | COc1cccc(-c2c3c([nH]c(=O)c2C#N)CCc2cc(OC)ccc2-3)c1 | inconclusive [activator, partial curve, poor fit] | 
4 | COc1ccc(Nc2nc(Nc3ccc(OC)cc3)nc(-n3[nH]c(=O)c(C)c3C)n2)cc1 | inconclusive [activator, partial curve] | 
5 | Cc1ccc(NC(=O)CSc2nc3ccccc3c(=O)n2CCCC(=O)NCC2CCCO2)cc1 (stereo not drawn) | inconclusive [activator, partial curve, poor fit] | 
6 | O=C(/C=C/c1ccccc1)CC(O)(c1ccccc1)C(F)(F)C(F)F (stereo not drawn) |  | inactive: -5.44%
7 | CC(=O)c1ccccc1NC(=O)COC(=O)/C=C/c1cccs1 |  | inactive: -2.37%
8 | COc1ccccc1CN(C)C(=O)c1sccc1-c1ccccc1 | inconclusive [activator, partial curve, poor fit] | 
9 | Cc1ccc(S(=O)(=O)N2CCN(C(=O)CN3C(=O)NC4(CCCC4)C3=O)CC2)c(C)c1 | inconclusive [activator, single point] | 
10 | CC(=O)Nc1sc(C)c(C)c1C(=O)Nc1ccc(C)cc1 | inconclusive [activator, single point] | 
11 | N#Cc1ccccc1S(=O)(=O)N1CCN(C(=O)c2ccc(-n3cncn3)c([N+](=O)[O-])c2)CC1 |  | inactive: 12.2%
12 | Cc1cccc(-c2oc3ccccc3c2C#CCCCCO)c1 | inconclusive [activator, full curve, poor fit] | 
13 | Cc1ccccc1NC(=O)CN1C(=O)NC(C)(c2ccc3c(c2)OCO3)C1=O (stereo not drawn) |  | inactive: -3.13%
14 | CC(C)C(=O)Nc1ccc(NC(=S)NC(=O)c2ccccc2F)cc1 | inconclusive [activator, single point] | 
15 | CCOC1CCCC(n2cnc3c(=S)nc[nH]c32)O1 (stereo not drawn) | inconclusive [activator, single point] | 
16 | O=c1c2ccccc2[nH]c(=S)n1CCCN1CCN(C2CCCCC2)CC1 | inconclusive [activator, single point] | 
17 | CCOc1ccccc1C1CC(=O)NC2=C1C(=O)CCC2 (stereo not drawn) | inconclusive [activator, single point] | 
18 | CCc1cccc(CC)c1NC(=S)NCCc1ccc(O)c(O)c1 | inconclusive [activator, single point] | 
19 | C/C(N)=C(/C#N)C(=O)CSc1nc(-c2ccccc2)c(-c2ccccc2)o1 | inconclusive [activator, full curve, poor fit] | 
20 | Cc1cc(C)cc(S(=O)(=O)c2cn(C)c3cc(N4CCN(C)CC4)c(F)cc3c2=O)c1 | active: 23.1 µM | 
21 | S=c1[nH]nc(COc2ccccc2)n1/N=C/c1ccc(Cl)cc1Cl | inconclusive [activator, single point] | 

Row | SMILES | Potency | activity, positive = re-replication
22 | CCCc1cc(=O)n2[nH]c(C)c(-c3ccccc3)c2n1 | inconclusive [activator, partial curve, poor fit] | 
23 | CC(=O)OCC(=O)C1(O)CCC2C3CCC4=CC(=O)CCC4(C)C3(F)C(O)CC21C (stereo not drawn) |  | inactive: -1.59%
24 | COc1cc2c(cc1NC(=S)NC(=O)c1c(OC)cccc1OC)oc1ccccc12 |  | inactive: 9.05%
25 | O=C(COc1ccc([N+](=O)[O-])cc1)Nc1ccc2c(c1)nc1n2CCOC1 | active: 23.1 µM | 
26 | CCOc1ccc(NC(=O)c2ccc(NC(=O)c3ccccc3Br)cc2)cc1 | inconclusive [activator, single point] | 
27 | COc1ccc(CCNC(=O)CSc2n[nH]c(N)n2)cc1OC |  | inactive: 1.35%
28 | Cc1cccc(NS(=O)(=O)c2cnc(Cl)c(Br)c2)n1 | inconclusive [activator, single point] | 
29 | CC(=O)Cc1nsc(NC(=O)c2cc(-c3ccc(Cl)c(Cl)c3)oc2C)n1 | inconclusive [activator, partial curve, poor fit] | 
30 | CCN(c1cccc(C)c1)S(=O)(=O)c1ccc(-c2cc(C)no2)s1 |  | inactive: -6.18%
31 | Cc1ccc(C)c(NC(=O)C(Sc2ncnc3ccccc23)c2ccccc2)c1 (stereo not drawn) | inconclusive [activator, single point] | 
32 | COC(=O)C(=Cc1ccc(OCc2ccc([N+](=O)[O-])cc2)c(OC)c1)C(=O)OC | active: 1.46 µM | 
33 | Cc1nn2c(=O)cc(COC(=O)c3ccc(NC(=O)C(C)(C)C)cc3)nc2s1 | inconclusive [activator, partial curve, poor fit] | 
34 | COc1ccc(NC(C)C(=O)Nc2cccc(S(=O)(=O)N3CCOCC3)c2)cc1OC (stereo not drawn) |  | inactive: 14.1%
35 | CCN(C[C@H]1N[C@@](CC)(C(=O)OC)[C@H]2C(=O)N(C)C(=O)[C@@H]12)C(=O)c1ccc(C(C)(C)C)cc1 | inconclusive [activator, full curve, poor fit] | 
36 | CCOC(=O)C1CCN(C(=O)COC(=O)/C=C/c2cccc(OC)c2OC)CC1 | inconclusive [activator, full curve, poor fit] | 
37 | Cc1ccn2c(=O)nc(SCC(=O)Nc3cc(C)on3)nc2c1 | inconclusive [activator, partial curve, poor fit] | 
38 | COc1ccc(Cl)cc1Nc1nc(N)c2ccccc2n1 | inconclusive [activator, partial curve] | 
39 | O=[N+]([O-])c1cccnc1NCCNc1ncc(C(F)(F)F)cc1Cl | inconclusive [activator, single point] | 
40 | Cc1ncc(CO)c2c1Oc1nc(-c3ccccc3)nc(SCC(=O)N3CCCCC3)c1C2 | inconclusive [activator, single point] | 
41 | O=C(Nc1ccccc1C(=O)N1CCCCCC1)c1cccc(S(=O)(=O)N2CCOCC2)c1 | inconclusive [activator, partial curve, poor fit] | 
42 | Cc1ccc(-n2nnnc2SCC(=O)N(CC(C)C)c2c(N)n(CC(C)C)c(=O)[nH]c2=O)cc1 | inconclusive [activator, full curve, poor fit] | 

Row | SMILES | Potency | activity, positive = re-replication
43 | CS(=O)(=O)Nc1ccc(C2=NN(S(=O)(=O)c3ccc(F)cc3)C(c3ccco3)C2)cc1 (stereo not drawn) | inconclusive [activator, single point] | 
44 | Cn1c(=O)c2c(nc(N/N=C/c3cccnc3)n2Cc2ccccc2)n(C)c1=O |  | inactive: 9.81%
45 | O=C(OCC(=O)N1CCN(C(=O)c2ccco2)CC1)c1cccc(S(=O)(=O)N2CCc3ccccc32)c1 | inconclusive [activator, partial curve, poor fit] | 
46 | OCCN1CCN(c2nc(NCc3ccco3)c3ccccc3n2)CC1 | inconclusive [activator, single point] | 
47 | CCOC(=O)C1=C(N)c2ccccc2CC1C1CCCC1 (stereo not drawn) | inconclusive [activator, single point] | 
48 | CC(C)(C)[C@@H]1C=C(C(=O)NCc2ccccc2)O[C@H](OCc2ccc(CO)cc2)C1 | inconclusive [activator, partial curve, poor fit] | 
49 | COc1ccccc1-c1cccc([C@@H]2C[C@H]3[C@H](CON3C)CN2C)c1 |  | inactive: -11.8%
50 | Cc1ccccc1CSc1nnc(NC(=O)C2COc3ccccc3O2)s1 (stereo not drawn) | inconclusive [activator, single point] | 
51 | Cc1cc(NC(=O)C(C)SCC(=O)Nc2cc(Cl)ccc2N2CCN(C)CC2)no1 (stereo not drawn) | inconclusive [activator, partial curve, poor fit] | 
52 | Cn1c(=O)[nH]c(=O)c2c1nc(Br)n2CCCCSc1nc2ccccc2o1 | active: 7.31 µM | 
53 | COc1cc(NC(=O)c2ccccc2)c(OC)cc1NC(=O)CSc1[nH]c(=O)cc(C)c1C#N | inconclusive [activator, full curve] | 
54 | N#CC1(NC(=O)COC(=O)/C=C/c2ccc3ccccc3n2)CCCCC1 |  | inactive: 53.6%
55 | COc1ccc2c(c1)c(C(=O)CN1CCN(Cc3ccccc3)CC1)c(C)n2C | inconclusive [activator, partial curve, poor fit] | 
56 | CN(Nc1cccc(Cl)c1)c1cccc(Cl)c1 | inconclusive [activator, single point] | 
57 | COc1ccc(Cl)cc1NC(=O)C(C)N1CCc2ccccc21 (stereo not drawn) | inconclusive [activator, partial curve, poor fit] | 
58 | Cc1c(C#N)c(O)n(CCO)c(=O)c1N=Nc1ccc2c(c1)COC2=O | inconclusive [activator, partial curve] | 
59 | CC(C)(C)NC(=O)NC(=O)CN1CCc2ccccc21 | inconclusive [activator, single point] | 
60 | Cc1csc(NC(=O)CSc2ncnc3c2cnn3-c2ccccc2Cl)n1 | active: 22.4 µM | 
61 | Cc1cc(C)cc(-n2c(C)cc(/C=N/NC(=O)c3cccc([N+](=O)[O-])c3C)c2C)c1 | inconclusive [activator, single point] | 
62 | Clc1ccc(N2CCN(Cc3c[nH]c4ncccc34)CC2)cc1 | inconclusive [activator, full curve, poor fit] | 
63 | CC(=O)N(CCC(c1ccco1)C(C)C)Cc1ccc(OC(C)C)cc1 (stereo not drawn) | inconclusive [activator, single point] | 
